Measurements published in PMC11876601 (Molecular Systems Biology, 2025).
Like-named read-outs stand apart in the source and are kept apart here.

Columns and labels:
Experiment in all cases: cells
AsPC-1 [1] = test system: AsPC-1; design: ATPlite luminescence viability of PDAC cell lines, 11-dose single-agent curves, 4-parameter fit; details: Homo sapiens, ASPC1, 72 h, read-out: EC50 [nM]
Method: (§1) Afterward, small amounts were transferred to 384-well intermediate plates (Greiner Bio-One GmbH, Germany). […] For drug combination screening, 1000 to 5000 cells were seeded into 384-well plates (CulturPlate™, Perkin Elmer, MA, USA) using a Multidrop™ Combi Reagent Dispenser (Thermo Scientific, MA, USA) in 50 µl medium per well 24 h prior to drug treatment (seeding densities see Appendix Table S1). […] The final DMSO concentration in each well was 0.2%. […] Eight wells per plate without library drug served as negative controls, and sixteen wells per plate containing 5 µM Staurosporine served as positive controls. […] Next, we analyzed the drug sensitivity of immortalized duct cell line HPDE to detect effects unrelated to pancreatic cancer.

BxPC-3 [2] = test system: BxPC-3; design: ATPlite luminescence viability of PDAC cell lines, 11-dose single-agent curves, 4-parameter fit; details: Homo sapiens, BXPC-3, 72 h, read-out: EC50 [nM]
Method: as §1

Capan-1 [3] = test system: Capan-1; design: ATPlite luminescence viability of PDAC cell lines, 11-dose single-agent curves, 4-parameter fit; details: Homo sapiens, CAPAN-1, 72 h, read-out: EC50 [nM]
Method: as §1

Colo-357 [4] = test system: Colo-357; design: ATPlite luminescence viability of PDAC cell lines, 11-dose single-agent curves, 4-parameter fit; details: Homo sapiens, COLO357, 72 h, read-out: EC50 [nM]
Method: as §1

Dan-G [5] = test system: Dan-G; design: ATPlite luminescence viability of PDAC cell lines, 11-dose single-agent curves, 4-parameter fit; details: 72 h, read-out: EC50 [nM]
Method: as §1

FAMPAC [6] = test system: FAMPAC; design: ATPlite luminescence viability of PDAC cell lines, 11-dose single-agent curves, 4-parameter fit; details: 72 h, read-out: EC50 [nM]
Method: as §1

HPDE [7] = test system: HPDE; design: ATPlite luminescence viability of PDAC cell lines, 11-dose single-agent curves, 4-parameter fit; details: HPDE, 72 h, read-out: EC50 [nM]
Method: as §1

HuP-T4 [8] = test system: HuP-T4; design: ATPlite luminescence viability of PDAC cell lines, 11-dose single-agent curves, 4-parameter fit; details: Homo sapiens, HuP-T4, 72 h, read-out: EC50 [nM]
Method: as §1

MiaPaCa-2 [9] = test system: MiaPaCa-2; design: ATPlite luminescence viability of PDAC cell lines, 11-dose single-agent curves, 4-parameter fit; details: Homo sapiens, MIA PaCa-2, 72 h, read-out: EC50 [nM]
Method: as §1

PANC-1 [10] = test system: PANC-1; design: ATPlite luminescence viability of PDAC cell lines, 11-dose single-agent curves, 4-parameter fit; details: Homo sapiens, PANC-1, 72 h, read-out: EC50 [nM]
Method: as §1

PSN-1 [11] = test system: PSN-1; design: ATPlite luminescence viability of PDAC cell lines, 11-dose single-agent curves, 4-parameter fit; details: Homo sapiens, PSN1, 72 h, read-out: EC50 [nM]
Method: as §1

Suit2-07 [12] = test system: Suit2-07; design: ATPlite luminescence viability of PDAC cell lines, 11-dose single-agent curves, 4-parameter fit; details: 72 h, read-out: EC50 [nM]
Method: as §1

PaTu-8988-T [13] = test system: PaTu-8988-T; design: ATPlite luminescence viability of PDAC cell lines, 11-dose single-agent curves, 4-parameter fit; details: Homo sapiens, PaTu 8988t, 72 h, read-out: EC50 [nM]
Method: as §1

Capan-1 [14] = test system: Capan-1; design: Viability of PDAC cell lines, ATPlite luminescence, 11-dose single-agent curve fit; details: Homo sapiens, CAPAN-1, 72 h, read-out: EC50 [nM]
Method: as §1

HuP-T4 [15] = test system: HuP-T4; design: Viability of PDAC cell lines, ATPlite luminescence, 11-dose single-agent curve fit; details: Homo sapiens, HuP-T4, 72 h, read-out: EC50 [nM]
Method: as §1

PANC-1 [16] = test system: PANC-1; design: Viability of PDAC cell lines, ATPlite luminescence, 11-dose single-agent curve fit; details: Homo sapiens, PANC-1, 72 h, read-out: EC50 [nM]
Method: as §1

AsPC-1 [17] = test system: AsPC-1; design: Viability of PDAC cell lines, ATPlite luminescence, 11-dose single-agent curve fit; details: Homo sapiens, ASPC1, 72 h, read-out: EC50 [nM]
Method: as §1

Colo-357 [18] = test system: Colo-357; design: Viability of PDAC cell lines, ATPlite luminescence, 11-dose single-agent curve fit; details: Homo sapiens, COLO357, 72 h, read-out: EC50 [nM]
Method: as §1

Dan-G [19] = test system: Dan-G; design: Viability of PDAC cell lines, ATPlite luminescence, 11-dose single-agent curve fit; details: 72 h, read-out: EC50 [nM]
Method: as §1

FAMPAC [20] = test system: FAMPAC; design: Viability of PDAC cell lines, ATPlite luminescence, 11-dose single-agent curve fit; details: 72 h, read-out: EC50 [nM]
Method: as §1

HPDE [21] = test system: HPDE; design: Viability of PDAC cell lines, ATPlite luminescence, 11-dose single-agent curve fit; details: HPDE, 72 h, read-out: EC50 [nM]
Method: as §1

MiaPaCa-2 [22] = test system: MiaPaCa-2; design: Viability of PDAC cell lines, ATPlite luminescence, 11-dose single-agent curve fit; details: Homo sapiens, MIA PaCa-2, 72 h, read-out: EC50 [nM]
Method: as §1

PSN-1 [23] = test system: PSN-1; design: Viability of PDAC cell lines, ATPlite luminescence, 11-dose single-agent curve fit; details: Homo sapiens, PSN1, 72 h, read-out: EC50 [nM]
Method: as §1

PaTu-8988-T [24] = test system: PaTu-8988-T; design: Viability of PDAC cell lines, ATPlite luminescence, 11-dose single-agent curve fit; details: Homo sapiens, PaTu 8988t, 72 h, read-out: EC50 [nM]
Method: as §1

Suit2-07 [25] = test system: Suit2-07; design: Viability of PDAC cell lines, ATPlite luminescence, 11-dose single-agent curve fit; details: 72 h, read-out: EC50 [nM]
Method: as §1

BxPC-3 [26] = test system: BxPC-3; design: Viability of PDAC cell lines, ATPlite luminescence, 11-dose single-agent curve fit; details: Homo sapiens, BXPC-3, 72 h, read-out: EC50 [nM]
Method: as §1

| EC50 (AsPC-1 [1]) [nM] | EC50 (BxPC-3 [2]) [nM] | EC50 (Colo-357 [4]) [nM] | EC50 (MiaPaCa-2 [9]) [nM] | EC50 (PANC-1 [16]) [nM] | EC50 (AsPC-1 [17]) [nM] | EC50 (Colo-357 [18]) [nM] | SMILES | EC50 (Dan-G [5]) [nM] | EC50 (FAMPAC [6]) [nM] | EC50 (HPDE [7]) [nM] | EC50 (PSN-1 [11]) [nM] | EC50 (Suit2-07 [12]) [nM] | EC50 (Capan-1 [14]) [nM] | EC50 (HuP-T4 [15]) [nM] | EC50 (Dan-G [19]) [nM] | EC50 (FAMPAC [20]) [nM] | EC50 (HPDE [21]) [nM] | EC50 (PSN-1 [23]) [nM] | EC50 (Suit2-07 [25]) [nM] | further results |
| --- | --- | --- | --- | --- | --- | --- | --- | --- | --- | --- | --- | --- | --- | --- | --- | --- | --- | --- | --- | --- |
| 11.8 | 7.16 | 7.28 | 3.21 | – | – | – | CCc1cnn2c(NCc3ccc[n+]([O-])c3)cc(N3CCCC[C@H]3CCO)nc12 [Dinaciclib] | 9.31 | 4.36 | 7.25 | 5.08 | 12.4 | – | – | – | – | – | – | – | EC50 (Capan-1 [3]): 7.38 nM; EC50 (HuP-T4 [8]): 10.6 nM; EC50 (PANC-1 [10]): 19.4 nM |
| 6540 | > 10000 | 3000 | 1940 | > 10000 | – | – | COc1cc(OC)cc(N(CCNC(C)C)c2ccc3ncc(-c4cnn(C)c4)nc3c2)c1 [Erdafitinib] | > 10000 | 4680 | > 10000 | > 10000 | 2270 | 5060 | 95.2 | – | – | – | – | – | EC50 (PaTu-8988-T [13]): 4390 nM |
| – | > 10000 | – | – | > 10000 | > 10000 | 2150 | Cc1ccc(NC(=O)c2ccc(CN3CCN(C)CC3)cc2)cc1Nc1nccc(-c2cccnc2)n1 [Imatinib] | – | – | – | – | – | > 10000 | > 10000 | > 10000 | > 10000 | 8790 | 3840 | 4070 | EC50 (MiaPaCa-2 [22]): 7160 nM; EC50 (PaTu-8988-T [24]): > 10000 nM |
| – | – | – | – | 0.09 | 123 | 23.6 | C[C@@H]1CCN(C(=O)CC#N)C[C@@H]1N(C)c1ncnc2[nH]ccc12 [Tofacitinib] | – | – | – | – | – | 1430 | – | 259 | 3450 | 2.55 | 5480 | 0.09 | EC50 (BxPC-3 [26]): 0.2 nM |
